# The full ranking holds about 33,000 sequences; the median of “E-score (-0.5 to 0.5)” is about -0.041, and the highest 2% start at about 0.37. Some of the results follow.
# Molecular target: T1, Ecm22 (UniProt Q05958)
# T1 sequence: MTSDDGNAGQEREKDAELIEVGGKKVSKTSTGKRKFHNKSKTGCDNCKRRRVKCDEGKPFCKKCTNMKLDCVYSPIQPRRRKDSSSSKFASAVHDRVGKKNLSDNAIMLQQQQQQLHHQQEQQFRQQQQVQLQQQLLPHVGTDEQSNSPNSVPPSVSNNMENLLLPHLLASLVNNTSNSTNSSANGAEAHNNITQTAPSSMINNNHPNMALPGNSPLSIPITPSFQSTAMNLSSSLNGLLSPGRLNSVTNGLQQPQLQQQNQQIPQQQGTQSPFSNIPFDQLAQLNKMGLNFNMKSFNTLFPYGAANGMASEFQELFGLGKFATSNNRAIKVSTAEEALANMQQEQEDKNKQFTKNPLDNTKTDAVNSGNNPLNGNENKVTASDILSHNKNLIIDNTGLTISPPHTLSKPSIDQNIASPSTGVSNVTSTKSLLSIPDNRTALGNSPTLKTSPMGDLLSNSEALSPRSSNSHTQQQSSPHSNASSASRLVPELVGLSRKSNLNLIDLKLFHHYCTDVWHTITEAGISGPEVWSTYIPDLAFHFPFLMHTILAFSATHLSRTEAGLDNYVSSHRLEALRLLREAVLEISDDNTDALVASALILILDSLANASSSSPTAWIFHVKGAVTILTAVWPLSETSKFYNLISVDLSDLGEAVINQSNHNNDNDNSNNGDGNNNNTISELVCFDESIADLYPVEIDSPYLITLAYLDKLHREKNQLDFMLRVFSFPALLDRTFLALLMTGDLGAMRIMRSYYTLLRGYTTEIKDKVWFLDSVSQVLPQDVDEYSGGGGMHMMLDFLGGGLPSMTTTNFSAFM
# Experiment: PBM E-score (8-mer binding enrichment) (E-score (-0.5 to 0.5)); higher = stronger / more preferred TF binding; most listed sequences are background and not binding sites
# Details: protein concentration: 200 nM; construct: GST-full length
# Procedure, shortened: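 GST-tagged yeast TFs (full-length or DNA-binding domain) were made by PURExpress in vitro transcription/translation and applied at about 100-200 nM to universal all-10-mer Agilent arrays. The arrays were made double-stranded by primer extension, on fresh or once-stripped slides. Bound protein was detected with fluorescent anti-GST, and scans were normalised with masliner. Each ungapped eight-base word, pooled with its reverse complement, received an E-score (modified Wilcoxon-Mann-Whitney statistic) from the Universal PBM Analysis Suite.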
row,Sequence,PBM E-score
1,AAATTCGC,0.128
2,CTACAATC,0.0261
3,ATCGCGTG,0.141
4,CAATACAG,-0.0911
5,CCGACAGG,0.0786
6,CGGATATA,0.256
7,CTTTGGAA,-0.199
8,AACAACAT,0.0857
9,GCGCTTAC,-0.00017
10,CACCCGCA,-0.177
11,AGATTTTG,-0.18
12,CACAGAGC,-0.11
13,GACATAAC,-0.0145
14,AGTGTAGG,-0.116
15,TGCGGACA,0.139
16,GGGCTACA,-0.169
17,ACTCAAGT,-0.0385
18,AACCTATG,-0.187
19,AGCTTAAA,0.0659
20,CGGTAAGC,0.0307
21,CCGCAAGC,-0.185
22,GTCGCGAC,0.293
23,CACGTGCA,-0.123
24,CTTAGCAA,0.00503
25,GAAATTCA,0.0712

row,Sequence,PBM E-score
1,ACTGATTC,-0.126
2,AGAACATC,-0.212
3,ACAAAGGC,0.0895
4,AATGTGCG,0.222
5,AACGTGCC,-0.0231
6,CTAACTTC,0.0104
7,GGCACTGA,0.0137
8,AGCTTCTG,-0.0971
9,GGACCTCA,-0.206
10,GCTTCAAA,-0.0223
11,ATGAGGGC,-0.125
12,GTGAGCAA,-0.00052
13,GCGATGCC,0.216
14,GAGTCAGC,-0.191
15,CCTAGGAC,-0.265
16,CCCCTCAC,-0.215
17,GCTTCTGA,0.0041
18,GGAACTTA,0.0614
19,AGACATGA,-0.176
20,AAGAGCGT,0.0857
21,GCTACGCA,0.182
22,ATTCACAC,-0.0769
23,AAGATAGG,-0.191
24,AGCATATG,-0.135
25,AAGGCCCG,0.0655

row,Sequence,PBM E-score
1,ATTGGGGC,-0.307
2,ACAAATCG,-0.119
3,ATCAACAG,-0.198
4,AGATAGAA,-0.206
5,CTTATCGA,0.00954
6,TAAACCCA,0.0155
7,CATGAGGC,-0.23
8,GTCTATAA,0.0932
9,ACACTATA,-0.122
10,AGCTCCAT,-0.161
11,GGTATATA,0.168
12,CTCCGTGC,-0.0935
13,ACAGGGAC,0.0524
14,TGGGAGAA,-0.323
15,ATCAGCCG,0.0208
16,ACATCCGC,0.0834
17,ACAGGAGA,0.0857
18,CATCCGAC,0.0316
19,ACAGGATG,-0.0609
20,ACTCCCAG,-0.149
21,ATAAGGAA,-0.0638
22,GGGATTAA,-0.0253
23,AGAAATCT,0.0637
24,GACATGCC,-0.139
25,GTCATCTA,0.0382

row,Sequence,PBM E-score
1,AGCCCTAC,0.0141
2,GTGTTGCA,-0.0518
3,CTATTAAC,0.107
4,CAATAGCG,-0.0948
5,CGCTGTAA,-0.0186
6,ACGAACAT,0.386
7,ACACATTG,-0.211
8,TTATACAA,0.117
9,ATTGACTG,-0.0411
10,ATTTTCGG,0.176
11,CATCTCCA,-0.238
12,CCGGGACG,-0.345
13,ACTCCCAT,-0.132
14,GGCCTCCC,-0.0791
15,CTTCTGGA,-0.24
16,AGAATTCA,-0.0502
17,TGCTTCCA,-0.219
18,AGGGCCAG,-0.311
19,ACTGCAGT,-0.178
20,ACGCGAGG,0.295
21,AAGCGGTA,0.145
22,CCTCTATC,-0.0639
23,CTCATCAG,-0.0824
24,GCTTCACC,-0.0546
25,AGGATTTA,-0.0133

row,Sequence,PBM E-score
1,AGGACCGA,0.242
2,CAGCGTGA,0.0291
3,TCTCCCAA,-0.297
4,ATGTTTAG,0.0546
5,AGTGTCAT,-0.0584
6,AAGATAAA,-0.0228
7,AGTGTGGA,-0.298
8,ATACCCAC,-0.0951
9,ATTCGACG,0.0856
10,TATTCAAA,0.0408
11,GACGAAAC,0.287
12,ACATTCCC,-0.0494
13,ACAGATGT,-0.102
14,GCGCGCGA,0.217
15,AGTCGACT,-0.0931
16,ACTTGGAG,-0.166
17,AGGTTTGC,-0.153
18,ACTATGGC,-0.187
19,GGTGCGCA,0.07
20,CCGCCGCC,-0.097
21,AATTGGAG,-0.133
22,GCAAGCAA,0.0313
23,CAAATTTA,0.00623
24,CATGCGAC,0.178
25,GAGCACAA,-0.016

row,Sequence,PBM E-score
1,ACTCGTCC,-0.139
2,AACGGTAG,0.188
3,GCACTGGC,-0.187
4,ATGCTTAC,-0.13
5,CTTCGAAG,-0.0135
6,GATCGTGC,0.0469
7,CACCAGAC,0.0559
8,GAAAAGCA,-0.0156
9,CCCCTACA,-0.337
10,ACGCAAAA,0.156
11,AGTTTCAT,0.138
12,GCAGCATA,-0.167
13,CCACCGCA,0.0119
14,TACATTCA,-0.185
15,TACAGACA,0.145
16,CCCGCGCA,0.0386
17,TGACGACA,0.123
18,CCTTCCGA,-0.0653
19,GGTTTTAC,0.109
20,ATCTTGTG,-0.218
21,AAGGAAGT,-0.174
22,CATAACCG,0.132
23,CCCCGGCC,-0.306
24,ATCCTCAG,-0.0968
25,CGCCTCGA,0.0979

row,Sequence,PBM E-score
1,AACAAAGC,0.0372
2,GGATCTTA,0.158
3,ATCATAAC,0.00471
4,CTAGAAGC,-0.168
5,CCAGTAGA,-0.171
6,AGCATTCG,0.061
7,ACCTTAGA,-0.155
8,AGAAGCTG,-0.0646
9,ACAGATTA,-0.0874
10,AGGATGCC,-0.175
11,AGTAGAAC,-0.0192
12,CTATTAAA,-0.0427
13,AATTAGTG,-0.0596
14,CCTGGCAC,-0.217
15,GAATCCCA,-0.0546
16,TCGTTCAA,0.448
17,AGTATAAC,0.0917
18,CGGAGTCA,-0.0287
19,CAGGGCCG,-0.0559
20,CAACCCTC,-0.05
21,ATTGCTGC,-0.0302
22,CCCGGCTA,-0.11
